From the supplement of paper PMC10126150
Sequences with one replicate were seen in a single cluster, so their values are uncertain.

The sequences below were run on ATP (assay: switch fluorescence ratio, 500 uM ATP over buffer (Cy3 cluster intensity, sum of 5 cycles each) (fold (ratio)); higher = stronger signal-on switching upon ATP binding; sequences stand for … in TCGTCGGCAGCGTCAGATGTGTATAAGAGACAGTTTTTTTTTTTTTTTTTTTTTTTTT…TC). Settings: aptamer strand: ATP DNA aptamer (quencher-CACCTGGGGGAGTATTGCGGAGGAAGG + anchor), 100 nM annealed; ATP concentration: 500 uM; one replicate.
Outline: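 Per cluster, summed Cy3 intensity from the target cycles was divided by that from the buffer cycles to give the fluorescence ratio, then averaged per switch-domain sequence. Clusters outside 100-1000 RFU were excluded. The Cy3-labelled switching-strand clusters, on a modified Illumina MiSeq flow-cell, were annealed to 100 nM quencher-labelled ATP aptamer and imaged in selection buffer, then after 15 min with 500 uM ATP at 22 °C, for five cycles with NaOH stripping and re-annealing between them.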
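Also: ATP exposure 15 min at 22 °C before imaging.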

| Sequence | switch fluorescence ratio |
| --- | --- |
| GATCATAAAG | 0.994 |
| GATCATGTTC | 1 |
| GATCATTAAG | 0.966 |
| GATCATTTT | 1.02 |
| GATCCACATG | 1.06 |
| GATCCAGTCG | 1 |
| GATCCCCCCT | 1.15 |
| GATCCGCAGT | 7.59 |
| GATCCTAATG | 1.01 |
| GATCCTCCTC | 1.48 |
| GATCCTGTAT | 1.01 |
| GATCCTTTGG | 1.08 |
| GATCGAAGTA | 0.984 |
| GATCGACACT | 1.02 |
| GATCGCTCC | 1.18 |
| GATCGGATGG | 0.996 |
| GATCGGCAGC | 1.1 |
| GATCGGGA | 0.994 |
| GATCGTCCCG | 0.994 |
| GATCGTGCTT | 0.975 |
| GATCGTTACG | 1 |
| GATCTACAGA | 1.02 |
| GATCTCCATC | 1.01 |
| GATCTCCTA | 0.92 |
| GATCTCTTCA | 1.01 |
| GATCTTAGCC | 0.958 |

| Sequence | switch fluorescence ratio |
| --- | --- |
| GATCTTTCGC | 1.01 |
| GATGAAAAAC | 1.52 |
| GATGAACTAG | 0.994 |
| GATGAATATA | 0.938 |
| GATGACCTTG | 0.976 |
| GATGAGTGTA | 0.93 |
| GATGATAAGA | 1.04 |
| GATGCCTTGG | 0.997 |
| GATGCTGAA | 1 |
| GATGCTTTTA | 1.01 |
| GATGGAAAGA | 0.957 |
| GATGGATATG | 1.01 |
| GATGGATCTT | 1.01 |
| GATGGATGAG | 1.01 |
| GATGGCAACG | 1.03 |
| GATGGTAGTA | 0.992 |
| GATGGTGGGC | 0.992 |
| GATGTAATGA | 1.02 |
| GATGTAGAA | 0.963 |
| GATGTAGGTC | 0.985 |
| GATGTCCGAC | 1.06 |
| GATGTCCGTG | 0.989 |
| GATGTGCTAT | 1.02 |
| GATGTGCTCC | 1.09 |
| GATGTTCTCT | 1 |
| GATGTTTGTT | 0.976 |

| Sequence | switch fluorescence ratio |
| --- | --- |
| GATTAACTTT | 1.04 |
| GATTAATGGT | 1.03 |
| GATTAATTGG | 0.975 |
| GATTAGCTTT | 1.05 |
| GATTAGTTTA | 0.997 |
| GATTATAAAT | 0.958 |
| GATTATACGG | 0.977 |
| GATTATCACA | 1 |
| GATTATGGCT | 0.988 |
| GATTCAGGA | 1.02 |
| GATTCCGTCA | 1.08 |
| GATTCCTACA | 1.06 |
| GATTCGAACA | 0.995 |
| GATTCGG | 1 |
| GATTCTGGGC | 0.961 |
| GATTGAAAAA | 1.01 |
| GATTGAAGGA | 0.973 |
| GATTGAAGGC | 1.04 |
| GATTGACATG | 1.12 |
| GATTGAGAGG | 0.963 |
| GATTGCCGAG | 1.01 |
| GATTGGAATT | 0.934 |
| GATTGGTTAG | 0.991 |
| GATTGTGTTT | 1.06 |
| GATTGTTAGC | 1.01 |
| GATTTATGTG | 1 |

| Sequence | switch fluorescence ratio |
| --- | --- |
| GATTTCACCG | 1.01 |
| GATTTCGTAC | 1.03 |
| GATTTCTCAC | 1.08 |
| GATTTGAGAT | 1.02 |
| GATTTGTCCA | 0.883 |
| GATTTTAGT | 0.983 |
| GATTTTATG | 0.962 |
| GATTTTCGTG | 0.964 |
| GATTTTTCTA | 0.961 |
| GCAAAAGATA | 0.988 |
| GCAAATGCGG | 1.01 |
| GCAAATTCTG | 0.986 |
| GCAACAGTGG | 0.98 |
| GCAACCACTC | 1.51 |
| GCAACGAAAA | 1.06 |
| GCAACGACAC | 2.18 |
| GCAACGGGTA | 1 |
| GCAACGTTCT | 0.967 |
| GCAACTATCG | 1.03 |
| GCAAGACGCA | 1.73 |
| GCAAGGAGCC | 1.24 |
| GCAAGGTTAG | 0.981 |
| GCAAGTTATG | 1.03 |
| GCAATAGAGG | 1.15 |
| GCAATAGGT | 1.3 |
| GCAATGACAG | 1.06 |

| Sequence | switch fluorescence ratio |
| --- | --- |
| GCAATGGACT | 1.29 |
| GCAATGGGGG | 1.32 |
| GCAATGTAGT | 1.04 |
| GCAATTAGGC | 1.14 |
| GCAATTGGG | 1.11 |
| GCACAAGCAA | 1.01 |
| GCACAGGATC | 1.01 |
| GCACATGCTT | 1.08 |
| GCACATGTGC | 0.99 |
| GCACCGTGGT | 1.04 |
| GCACGAATTG | 1.11 |
| GCACGCGCGT | 0.926 |
| GCACGGATTA | 1.12 |
| GCACGGTTTC | 1.01 |
| GCACGTAATA | 1.61 |
| GCACTAATTG | 1.07 |
| GCACTATAAT | 1.08 |
| GCACTATGTC | 1.13 |
| GCACTCCTTA | 1.01 |
| GCACTTACGG | 1.48 |
| GCACTTATTA | 1.08 |
| GCACTTGCAC | 1.04 |
| GCAGACGAGA | 1.05 |
| GCAGACTTA | 1.01 |
| GCAGAGACGT | 1.01 |
| GCAGAGTGTC | 0.923 |

| Sequence | switch fluorescence ratio |
| --- | --- |
| GCAGATATTC | 1.04 |
| GCAGCAGGT | 1.14 |
| GCAGCATGAG | 1.32 |
| GCAGCATGGT | 1.12 |
| GCAGCCACTT | 1.06 |
| GCAGCCATTC | 1.78 |
| GCAGCGCCGG | 1.01 |
| GCAGCGGATT | 1 |
| GCAGCGTCTT | 0.987 |
| GCAGCTATTT | 1.17 |
| GCAGCTGAAA | 1.04 |
| GCAGCTTGAG | 1.08 |
| GCAGCTTTTG | 1.02 |
| GCAGGAGGTA | 0.985 |
| GCAGGCGGAG | 1.02 |
| GCAGGCTA | 0.994 |
| GCAGGGAGA | 1.02 |
| GCAGGGCCTG | 0.988 |
| GCAGGGCTGC | 1.04 |
| GCAGGGGGCT | 0.981 |
| GCAGGTAAAG | 1.01 |
| GCAGGTACCC | 1 |
| GCAGGTCGCT | 1.04 |
| GCAGGTGCAA | 0.918 |
| GCAGGTGCCA | 1.26 |
| GCAGGTTTAA | 1.01 |

| Sequence | switch fluorescence ratio |
| --- | --- |
| GCAGTAAGGT | 1 |
| GCAGTACCTA | 1.1 |
| GCAGTAGGAC | 1.45 |
| GCAGTCAGCA | 1.03 |
| GCAGTGACTA | 1.05 |
| GCAGTGGCCA | 1.02 |
| GCAGTGTCAG | 1.01 |
| GCAGTTAATG | 0.985 |
| GCAGTTATGA | 0.996 |
| GCAGTTCTCT | 1.03 |
| GCAGTTGACA | 1.03 |
| GCATAAATGG | 1.01 |
| GCATACTTAA | 1.05 |
| GCATACTTGA | 1.03 |
| GCATAGATTC | 1.02 |
| GCATAGGT | 1.05 |
| GCATATAGGG | 1.04 |
| GCATATTCGG | 0.989 |
| GCATATTGTT | 0.994 |
| GCATATTTTA | 1.01 |
| GCATCAAATT | 0.995 |
| GCATCAGACA | 1.02 |
| GCATCCTCTG | 1.12 |
| GCATGAGGAG | 1.05 |
| GCATGCAGTC | 1.01 |
| GCATGCATAT | 0.984 |

| Sequence | switch fluorescence ratio |
| --- | --- |
| GCATGCTGAA | 0.964 |
| GCATGGAACT | 1.01 |
| GCATGTAGTA | 1.02 |
| GCATGTCATC | 1.01 |
| GCATGTCGAG | 1.03 |
| GCATGTTACT | 1.12 |
| GCATTCAGCT | 0.989 |
| GCATTCAGGC | 0.983 |
| GCATTCGTTG | 1.03 |
| GCCAACAGCA | 0.996 |
| GCCAAGTAGG | 0.997 |
| GCCAATAAGC | 0.986 |
| GCCAATGTAG | 0.99 |
| GCCAATTGAC | 1.09 |
| GCCACTAATC | 1.04 |
| GCCACTTGGC | 0.861 |
| GCCAGACACA | 1.03 |
| GCCAGAGTAT | 1 |
| GCCAGGATGT | 1.12 |
